No constants are given. Whether binding was seen depends on the method and setting.
Molecular target: T1, ABA receptor PYR1 (Arabidopsis), O49686
T1 chain: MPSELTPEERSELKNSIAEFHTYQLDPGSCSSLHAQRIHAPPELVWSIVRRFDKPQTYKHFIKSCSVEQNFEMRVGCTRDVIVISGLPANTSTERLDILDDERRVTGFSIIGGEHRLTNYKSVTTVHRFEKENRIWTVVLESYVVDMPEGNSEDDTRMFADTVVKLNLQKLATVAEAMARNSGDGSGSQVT
Test: AlphaScreen or HTRF; biotinylated ABA receptor and AGIA-tagged ABA receptor, crude wheat cell-free translation mixtures, without ABA; 14 x 14 matrix; pair = signal at least two times that of DHFR
Settings: remark: other sources report otherwise

B1: ABA receptor PYR1, O49686 1-191 (receptor)
chain: MPSELTPEERSELKNSIAEFHTYQLDPGSCSSLHAQRIHAPPELVWSIVRRFDKPQTYKHFIKSCSVEQNFEMRVGCTRDVIVISGLPANTSTERLDILDDERRVTGFSIIGGEHRLTNYKSVTTVHRFEKENRIWTVVLESYVVDMPEGNSEDDTRMFADTVVKLNLQKLATVAEAMARNSGDGSGSQVT
modifications: here or on the partner: N-terminal mono-biotinylation (BirA); N-terminal mono-biotinylation (BirA)
binding: no binding

From PMC5844987
